The whole screen tested about 48,000 compounds, of which about 120 (0.25%) were called active. Not shown: some 4% with an inconclusive outcome. Calls follow the shape of the dose curve; as a rule, active = well fitted activation curve with a large enough effect; inconclusive = small, poorly fitted or top-dose-only effect, or another doubt; inactive = no such curve, though single readings can be large or run the other way. The list shows a part of the results.
Test: Primary qHTS for Identification of Small Molecule Activators of Huntingtin-Antisense Promoter Activity; also: nearly all actives have a fitted effect of over 55% in size
Conditions: HEK293 HTT-AS promoter firefly luciferase reporter, 24 h; series mostly up to 57.5 µM; activity change, positive = activation: at the top concentration
Method in brief: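 HEK293 luciferase promoter-reporter cells (2,500/well) plated 24 h, then compounds added at up to 57.5 uM final for 24 h at 37 °C. Firefly luminescence by Dual-Glo, normalized to vehicle (0%) and zero RLU (-100%).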

Activity change, positive = activation, inactive:
CC1(C)O[C@@H]2C[C@H]3[C@@H]4CCC5=CC(=O)C=C[C@]5(C)[C@@]4(F)[C@@H](O)C[C@]3(C)[C@]2(C(=O)CO)O1 -7.18%, COc1ccccc1N1CCN(C(=O)C2CCN(S(=O)(=O)c3cccc4nonc34)CC2)CC1 -19.3%, Nc1ncc(S(=O)(=O)NCc2ccccc2F)cn1 -3.12%, Cc1ccc(Nc2cc(C(=O)NC3CCCC3)c3ccccc3n2)cc1C -16.2%, CCOC(=O)c1c(C)n(-c2ccccc2)c2ccc(OC(=O)c3ccccc3Cl)cc12 0.508%, CC(C)COc1ccc(C(=O)NCC2OCCc3ccccc32)cc1 (configuration not stated) 2.96%, CCOc1ccc(CCNC(=O)C2CCCN(c3nnc(C)c4c(C)n(-c5ccccc5)nc34)C2)cc1 (configuration not stated) -26.6%, CCCCCCCCCCCCCCCCCCO -1.71%, CCc1ccccc1Nc1nn2c(=O)c3ccc(C(=O)NCCc4ccccc4)cc3nc2s1 -21.5%, Cc1c(Cl)cccc1NC(=O)CN1C(=O)c2ccccc2Sc2ncccc21 -32.1%, Cc1cccc(C(=O)NC2(C(F)(F)F)N=C(c3ccccc3)N(Cc3ccccc3)C2=O)c1 (configuration not stated) -19%, Cc1ccc(-c2c(CN3CCN(c4cc(Cl)ccc4C)CC3)csc2C)cc1 -20.8%, CC(=O)N1CCc2c(sc3c2c(=O)n(-c2ccccc2Cl)c(=O)n3C)C1 -5.68%, O=C(CSc1nc2ccccc2n1CC(=O)Nc1ccc(F)cc1F)Nc1ccc(F)cc1 5.49%, CCOc1ccc2c(c1)c(=O)c(S(=O)(=O)c1ccc(C)cc1)cn2CC(=O)Nc1ccc(C)cc1 -9.05%, COc1ccc(-n2c(SCc3nc(-c4ccc(C)cc4)no3)nnc2-c2ccncc2)cc1 -23.2%, CCn1c(=O)c2cc(C(=O)NCCc3cccc(C)c3)sc2c2ccccc21 -9.31%, COCCCN1CCc2nc(SCC(=O)Nc3ccc(C)c(Cl)c3)[nH]c(=O)c2C1 2.91%, CCCN(C(=O)C1CCN(S(=O)(=O)c2c(C)noc2/C=C/c2ccc(C)cc2)CC1)c1ccccc1F -2.57%, Cc1cccc(NC(=O)C2CCC(CNS(=O)(=O)c3ccc4c(c3)CCCC(=O)N4)CC2)c1C (configuration not stated) -19.7%, CCN1CCOC(=O)C1CC(=O)Nc1ccccc1C(F)(F)F (configuration not stated) -4.18%, Cc1nc(-c2ccc(F)cc2)sc1CCNC(=O)c1ccccc1 -8.02%, CC(=O)c1ccc(NC(=O)c2cccc(NC(=O)N3CCSc4ncccc43)c2)cc1 -10.3%, Cc1cc(C)cc(N(C)S(=O)(=O)c2nnc(NC(=O)COc3ccc(C)c(C)c3)s2)c1 -32.5%, CCOCCCNC(=O)c1c(NC(=O)Cc2coc3c(C)c(C)ccc23)sc2c1CCC2 -8.15%, COC(=O)c1cc(C)nc2c1c(=O)nc(SCc1cc(C)ccc1C)n2C1CC1 -24.3%, CCCN(Cc1cc2cc(C)ccc2[nH]c1=O)C(=O)c1cccc(Cl)c1 3.66%, COc1cc(OC)c(NC(=O)COc2ccccc2-c2nnc(-c3ccccc3)o2)cc1Cl -14.5%, CCc1ccc(S(=O)(=O)c2nnn3c2nc(N2CCOCC2)c2sccc23)cc1 -6.71%, CCc1c2c(nc3ccc(O)cc13)-c1cc3c(c(=O)n1C2)COC(=O)[C@]3(O)CC -37.1%, Cc1ccc(N2CC(c3nc(-c4ccc(Cl)cc4)no3)CC2=O)cc1F (configuration not stated) -6.69%, Cc1cc(N2CCC(C(=O)Nc3ccc(F)cc3C)CC2)n2nc(C)c(-c3ccc(Cl)cc3)c2n1 6.68%, Cc1cc(-c2ccccc2)n2nc(-c3ccc(Cl)cc3)cc2n1 17.5%, Cc1cc(Br)ccc1NC(=O)C1CCCN(S(=O)(=O)c2cccc3nonc23)C1 (configuration not stated) -14.2%, COc1ccccc1NC(=O)CSc1nnc(NC(=O)NC2CCCCC2)s1 29.7%, Cc1ccc(CNC(=O)C2CCN(S(=O)(=O)c3cccc4nonc34)CC2)cc1 -6.99%, COc1ccccc1/C=C/c1nc(C#N)c(N2CCN(C)CC2)o1 -11.2%, Cc1nn(-c2ccccc2)c2c1cc1c(=O)[nH]c(=O)nc-1n2-c1cccc(Cl)c1 -7.93%, Cc1cc(=O)c2cc(C(=O)Nc3ccc(C)c(C)c3)ccc2[nH]1 12%, CCc1ccc(NCc2cc3cc4c(cc3n(CC(=O)Nc3ccccc3OC)c2=O)OCCO4)cc1 -5.75%, Cc1cc(NC(=O)Nc2nnc(N(C)C3CCCCC3)s2)ccc1Br -15.9%, COc1ccc(C(=O)N2CCC(c3nc4ccccc4s3)CC2)cc1Cl -31.7%, Cc1ccc2oc(C(=O)Nc3ccc(S(=O)(=O)N(C)c4ccccc4)cc3)cc(=O)c2c1 -0.477% [at 11.5 µM, percent change from vehicle, -100% = no light], CN1C(=O)c2ccccc2C1=O -3.42% [at 116 µM, percent change from vehicle, -100% = no light], Cc1cccc(NC(=O)Cn2ncc3c4ccccc4n(Cc4ccccc4)c3c2=O)c1C -6.88%, Cc1ccc(S(=O)(=O)CCC(=O)Nc2ccc(OC(F)(F)F)cc2)cc1 -16.1%, CC(CC1c2ccccc2CCc2ccccc21)CN(C)C (configuration not stated) -10.5%, CN(C)[C@@H]1C(=O)C(C(N)=O)=C(O)[C@@]2(O)C(=O)C3=C(O)c4c(O)cccc4C[C@H]3C[C@@H]12 -27.9%, CCOC(=O)O[C@]1(C(=O)OCCl)CC[C@H]2[C@@H]3CCC4=CC(=O)C=C[C@]4(C)[C@H]3[C@@H](O)C[C@@]21C -2.42%, CCc1ccccc1NC(=O)Cn1c(=O)n(CCCCCC(=O)NCc2ccc(C)cc2)c(=O)c2sccc21 -15.9%, COc1cc(Cl)c(C)cc1NC(=O)CSc1nc2c(c(=O)[nH]1)CCC2 -14.7%, CCC(Sc1nc2ccncc2[nH]1)C(=O)Nc1cc(Cl)ccc1C (configuration not stated) -24.1%, O=C(c1ccc2c(c1)N(Cc1ccccc1F)C(=O)c1ccccc1S2(=O)=O)N1CCc2ccccc21 -28%, COc1cccc(CNC(=O)c2ccc(CNS(=O)(=O)c3ccc(C)cc3)cc2)c1 -22.1%, CCN(c1ccccc1)S(=O)(=O)c1nnc(NC(=O)c2ccccc2)s1 -25.8%, O=C(Nc1ccccc1)N(Cc1c[nH]c2ccccc12)C1CCCCCC1 19.7%, Cc1cccc(OCc2nc(CC(=O)Nc3ccc(C)cc3C)cs2)c1 -14.5%, Cc1cccc(N2CCN(C(=O)c3cnn(-c4ccccc4Cl)c3C3CCN(C(=O)OC(C)(C)C)CC3)CC2C)c1 (configuration not stated) -7.07%, COc1ccc(S(=O)(=O)NCCc2sc(-c3cccnc3)nc2C)c(F)c1 -5.66%, CCc1ccc(C2c3c(oc4ccc(F)cc4c3=O)C(=O)N2CCc2ccc(OC)cc2)cc1 (configuration not stated) -10.1%, CC1CCc2c(sc3nnn(CCCCOc4ccc(Cl)cc4)c(=O)c23)C1 (configuration not stated) 0.288%, COc1ccc(CNCCCSc2nnnn2-c2ccccc2)cc1 -17.2%, Cc1ccc(CNC(=O)Cn2c(=O)ccc3cc(S(=O)(=O)N4CCC(C)CC4)ccc32)cc1 -30.9%, COc1ccc(-c2cc(C(=O)NC(C)c3ccccc3)c3cc(C(C)C)ccc3n2)cc1 (configuration not stated) 0%, CCOC(=O)c1c(NC(=O)c2cc(OCC)c(OCC)c(OCC)c2)sc2c1CCCCC2 -0.251%, CCN(CC)CCNC(=O)C(=O)NCC(c1cccnc1)N1CCN(c2ccc(F)cc2)CC1 (configuration not stated) -4.57%, CCc1cccc(CC)c1NC(=O)C1CCC(CNS(=O)(=O)c2cccc3nsnc23)CC1 (configuration not stated) -21.6%, COc1ccc2cc3cc(C(=O)Nc4cc(C)c(Cl)cc4OC)oc3nc2c1 0.331%, COc1ccc(NC(=O)CSc2oc(-c3ccc(F)cc3)nc2S(=O)(=O)c2ccc(C)cc2)c(OC)c1 -4.78%, CC(=O)c1cccc(NS(=O)(=O)c2cc(-c3onc(C)c3C)ccc2C)c1 -48.2%, CCc1cc2c(cc1N1CCC(N3CCOCC3)CC1)C(C)(C)c1[nH]c3cc(C#N)ccc3c1C2=O 0.979%, COc1cc(Cl)c(NC(=O)c2cc(S(=O)(=O)N3CCCCC3)c[nH]2)c(OC)c1 -27.6%, Cc1sc2c(c1C)c(=O)n(-c1ccc(Cl)cc1)c(=O)n2Cc1cc(=O)n2cc(Br)ccc2n1 8.11%, CCOC(=O)c1c(S(=O)(=O)N2CCCC(C(=O)NCc3ccccc3Cl)C2)c(C)n(C)c1C (configuration not stated) 1.29%, COc1cc(NC(=O)C2CCN(S(=O)(=O)c3ccc4c(c3)CCCC(=O)N4)CC2)cc(OC)c1 -19%, CCOc1ccccc1NC(=O)CSc1nc2c(sc3ccccc32)c(=O)n1CCCC(=O)NC1CCCC1 -25.1%, Cc1cccc(NC(=O)c2ccc3c(O)c(S(=O)(=O)c4ccccc4)c(=O)[nH]c3c2)c1C -10.2%, O=C(Nc1ccc2nc(SCC(=O)N3CCc4ccccc43)sc2c1)c1cccc(F)c1 -28.5%, Cc1ccccc1-c1nc(CS(=O)(=O)CC(=O)NCCc2ccccc2)c(C)o1 -29.4%, Cc1ccc(C(=O)N2CCc3cc(CNC(=O)c4ccc(Br)cc4)ccc32)cc1 -43.7%, Clc1cc(Cl)cc(CNc2ncncc2-c2ccc3c(c2)OCO3)c1 -32.3%, COCCNC(=O)CCn1c(=O)c2cc(OC)c(OC)cc2n(CC(=O)Nc2ccccc2C)c1=O -2.76%, CS(=O)(=O)NCC(c1ccco1)N1CCN(c2ccc(F)cc2)CC1 (configuration not stated) -10.1%, O=S(=O)(c1ccc(-c2cc(C(F)(F)F)on2)s1)N1CCN(c2ccccc2)CC1 -4.67%, COc1ccc(S(=O)(=O)N2CCN(Cc3ccc4c(c3)OCO4)CC2)cc1C -2.2%, CCOC(=O)c1cnc2c(Cl)cc(Cl)cc2c1Nc1cc(C(=O)O)ccc1C -26.4%, Cc1cccc(C)c1NC(=O)C(=O)NCC(c1ccc2c(c1)OCO2)N1CCOCC1 (configuration not stated) -17%, Cc1c(Cl)cccc1NC(=O)CNS(=O)(=O)c1cccs1 -2.25%, Cc1nc2sccn2c(=O)c1S(=O)(=O)Nc1ccc(N2CCOCC2)cc1 -12.5%, Cc1cc(=O)[nH]c2nnc(SCc3c(F)cccc3Cl)n12 -3.49%, CCOc1ccc2c(c1)sc1nc(=O)n(-c3ccc(Cl)c(Cl)c3)c(=O)n12 24.1%, Cc1ccc(OCc2nc(-c3ccc(C(=O)N4CCN(c5cccc(C(F)(F)F)c5)CC4)cc3)oc2C)cc1 -28.6%
